For some of these results: What follows is the remainder of the data, with few or none of the strong results. This is a selection; strong and weak results do not stand in their true shares.
Target: Tyrosine-protein kinase SYK (Homo sapiens) (UniProt P43405)
Details: at 1 µM

Compared with `Cc1cccc(Oc2nccc(-c3c(-c4ccc(F)cc4)ncn3C3CCNCC3)n2)c1C`, `COc1ccccc1Oc1nccc(-c2c(-c3ccc(F)cc3)ncn2C2CCNCC2)n1` is higher in inhibition: -4.58% for the first, -1.63% for the second.

Compared with `Fc1ccc(-c2ncn(C3CCNCC3)c2-c2ccnc(Oc3cccc(F)c3)n2)cc1`, `Fc1ccc(Oc2nccc(-c3c(-c4ccc(F)cc4)ncn3C3CCNCC3)n2)cc1` is higher in inhibition: 0.39% for the first, 4.17% for the second.

First: O=C(O)c1ccc(Oc2nccc(-c3c(-c4ccc(F)cc4)ncn3C3CCNCC3)n2)cc1
Second: Fc1ccc(-c2ncn(C3CCNCC3)c2-c2ccnc(Oc3ccc(Cl)cc3)n2)cc1
The inhibition of the first is higher: 2.11% for the first, 0.42% for the second.

Going from `Fc1ccc(-c2ncn(C3CCNCC3)c2-c2ccnc(Oc3cccc(C(F)(F)F)c3)n2)cc1` to `CC(C)(C)c1ccc(Oc2nccc(-c3c(-c4ccc(F)cc4)ncn3C3CCNCC3)n2)cc1`, the inhibition rises from -3.7% to -0.62%.

Going from `O=C1NC(=O)C(c2cccc([N+](=O)[O-])c2)=C1Nc1cc(Cl)c(O)c(Cl)c1` to `O=C1NC(=O)C(c2ccccc2Cl)=C1Nc1cc(Cl)c(O)c(Cl)c1`, the inhibition rises from -2.48% to -0.92%.

First: O=C1NC(=O)C(c2ccccc2)=C1Nc1ccccc1
Second: COc1ccccc1C1=C(Nc2ccccc2)C(=O)NC1=O
The inhibition of the first is higher: 1.94% for the first, -0.56% for the second.

Compared with `CS(=O)(=O)c1ccc(Oc2nccc(-c3c(-c4ccc(F)cc4)ncn3C3CCNCC3)n2)cc1`, `NC(=O)CCc1ccccc1Oc1nccc(-c2c(-c3ccc(F)cc3)ncn2C2CCNCC2)n1` is higher in inhibition: -4.82% for the first, 0.03% for the second.

Target: T1, Tyrosine-protein kinase Tec (Homo sapiens) (UniProt P42680)
T1 sequence (whole entry): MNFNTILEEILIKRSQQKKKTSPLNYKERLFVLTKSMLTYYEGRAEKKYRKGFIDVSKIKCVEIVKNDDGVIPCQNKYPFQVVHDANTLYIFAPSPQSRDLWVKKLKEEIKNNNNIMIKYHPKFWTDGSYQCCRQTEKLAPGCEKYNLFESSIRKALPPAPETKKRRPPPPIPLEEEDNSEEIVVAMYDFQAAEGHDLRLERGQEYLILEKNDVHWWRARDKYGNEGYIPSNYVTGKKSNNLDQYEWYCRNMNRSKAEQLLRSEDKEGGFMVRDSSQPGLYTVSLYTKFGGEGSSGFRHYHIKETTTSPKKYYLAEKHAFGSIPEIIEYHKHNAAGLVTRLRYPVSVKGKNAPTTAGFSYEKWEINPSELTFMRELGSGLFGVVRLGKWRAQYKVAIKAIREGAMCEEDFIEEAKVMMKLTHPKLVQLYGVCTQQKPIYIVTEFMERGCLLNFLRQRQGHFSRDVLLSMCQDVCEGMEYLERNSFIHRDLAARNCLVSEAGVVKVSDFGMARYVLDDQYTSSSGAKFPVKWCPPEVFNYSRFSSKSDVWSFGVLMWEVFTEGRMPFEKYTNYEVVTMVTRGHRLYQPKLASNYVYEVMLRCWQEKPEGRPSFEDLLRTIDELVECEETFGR
Details: at 0.1 µM

First: Cc1cccc(Oc2nccc(-c3c(-c4ccc(F)cc4)ncn3C3CCNCC3)n2)c1C
Second: COc1ccccc1Oc1nccc(-c2c(-c3ccc(F)cc3)ncn2C2CCNCC2)n1
The inhibition of the first is lower: 0.84% for the first, 1.83% for the second.

Going from `Fc1ccc(-c2ncn(C3CCNCC3)c2-c2ccnc(Oc3cccc(F)c3)n2)cc1` to `Fc1ccc(Oc2nccc(-c3c(-c4ccc(F)cc4)ncn3C3CCNCC3)n2)cc1`, the inhibition falls from 6.97% to 4.04%.

First: O=C(O)c1ccc(Oc2nccc(-c3c(-c4ccc(F)cc4)ncn3C3CCNCC3)n2)cc1
Second: Fc1ccc(-c2ncn(C3CCNCC3)c2-c2ccnc(Oc3ccc(Cl)cc3)n2)cc1
The inhibition of the first is higher: 8.41% for the first, -1.47% for the second.

Compared with `Fc1ccc(-c2ncn(C3CCNCC3)c2-c2ccnc(Oc3cccc(C(F)(F)F)c3)n2)cc1`, `CC(C)(C)c1ccc(Oc2nccc(-c3c(-c4ccc(F)cc4)ncn3C3CCNCC3)n2)cc1` is higher in inhibition: 1.75% for the first, 1.98% for the second.

Going from `O=C1NC(=O)C(c2cccc([N+](=O)[O-])c2)=C1Nc1cc(Cl)c(O)c(Cl)c1` to `O=C1NC(=O)C(c2ccccc2Cl)=C1Nc1cc(Cl)c(O)c(Cl)c1`, the inhibition rises from 0.43% to 3.62%.

Going from `O=C1NC(=O)C(c2ccccc2)=C1Nc1ccccc1` to `COc1ccccc1C1=C(Nc2ccccc2)C(=O)NC1=O`, the inhibition falls from 5.62% to 3.74%.

Compared with `CS(=O)(=O)c1ccc(Oc2nccc(-c3c(-c4ccc(F)cc4)ncn3C3CCNCC3)n2)cc1`, `NC(=O)CCc1ccccc1Oc1nccc(-c2c(-c3ccc(F)cc3)ncn2C2CCNCC2)n1` is lower in inhibition: 1.39% for the first, -4.39% for the second.

Target: T1, Tyrosine-protein kinase Tec (Homo sapiens)
Details: at 1 µM

Compared with `Cc1cccc(Oc2nccc(-c3c(-c4ccc(F)cc4)ncn3C3CCNCC3)n2)c1C`, `COc1ccccc1Oc1nccc(-c2c(-c3ccc(F)cc3)ncn2C2CCNCC2)n1` is higher in inhibition: 3.75% for the first, 4.98% for the second.

First: Fc1ccc(-c2ncn(C3CCNCC3)c2-c2ccnc(Oc3cccc(F)c3)n2)cc1
Second: Fc1ccc(Oc2nccc(-c3c(-c4ccc(F)cc4)ncn3C3CCNCC3)n2)cc1
The inhibition of the first is higher: 7.94% for the first, -0.84% for the second.

First: O=C(O)c1ccc(Oc2nccc(-c3c(-c4ccc(F)cc4)ncn3C3CCNCC3)n2)cc1
Second: Fc1ccc(-c2ncn(C3CCNCC3)c2-c2ccnc(Oc3ccc(Cl)cc3)n2)cc1
The inhibition of the first is higher: 3.8% for the first, 0.25% for the second.

First: Fc1ccc(-c2ncn(C3CCNCC3)c2-c2ccnc(Oc3cccc(C(F)(F)F)c3)n2)cc1
Second: CC(C)(C)c1ccc(Oc2nccc(-c3c(-c4ccc(F)cc4)ncn3C3CCNCC3)n2)cc1
The inhibition of the first is higher: 7.26% for the first, 3.44% for the second.

First: O=C1NC(=O)C(c2cccc([N+](=O)[O-])c2)=C1Nc1cc(Cl)c(O)c(Cl)c1
Second: O=C1NC(=O)C(c2ccccc2Cl)=C1Nc1cc(Cl)c(O)c(Cl)c1
The inhibition of the first is lower: 5.27% for the first, 7.44% for the second.

First: O=C1NC(=O)C(c2ccccc2)=C1Nc1ccccc1
Second: COc1ccccc1C1=C(Nc2ccccc2)C(=O)NC1=O
The inhibition of the first is higher: 9.18% for the first, 5.84% for the second.

Going from `CS(=O)(=O)c1ccc(Oc2nccc(-c3c(-c4ccc(F)cc4)ncn3C3CCNCC3)n2)cc1` to `NC(=O)CCc1ccccc1Oc1nccc(-c2c(-c3ccc(F)cc3)ncn2C2CCNCC2)n1`, the inhibition falls from 3.24% to -3.02%.

Target: Angiopoietin-1 receptor (Homo sapiens) (UniProt Q02763)
Details: at 0.1 µM

Chain of UniProt Q02763 (Q02763 whole entry): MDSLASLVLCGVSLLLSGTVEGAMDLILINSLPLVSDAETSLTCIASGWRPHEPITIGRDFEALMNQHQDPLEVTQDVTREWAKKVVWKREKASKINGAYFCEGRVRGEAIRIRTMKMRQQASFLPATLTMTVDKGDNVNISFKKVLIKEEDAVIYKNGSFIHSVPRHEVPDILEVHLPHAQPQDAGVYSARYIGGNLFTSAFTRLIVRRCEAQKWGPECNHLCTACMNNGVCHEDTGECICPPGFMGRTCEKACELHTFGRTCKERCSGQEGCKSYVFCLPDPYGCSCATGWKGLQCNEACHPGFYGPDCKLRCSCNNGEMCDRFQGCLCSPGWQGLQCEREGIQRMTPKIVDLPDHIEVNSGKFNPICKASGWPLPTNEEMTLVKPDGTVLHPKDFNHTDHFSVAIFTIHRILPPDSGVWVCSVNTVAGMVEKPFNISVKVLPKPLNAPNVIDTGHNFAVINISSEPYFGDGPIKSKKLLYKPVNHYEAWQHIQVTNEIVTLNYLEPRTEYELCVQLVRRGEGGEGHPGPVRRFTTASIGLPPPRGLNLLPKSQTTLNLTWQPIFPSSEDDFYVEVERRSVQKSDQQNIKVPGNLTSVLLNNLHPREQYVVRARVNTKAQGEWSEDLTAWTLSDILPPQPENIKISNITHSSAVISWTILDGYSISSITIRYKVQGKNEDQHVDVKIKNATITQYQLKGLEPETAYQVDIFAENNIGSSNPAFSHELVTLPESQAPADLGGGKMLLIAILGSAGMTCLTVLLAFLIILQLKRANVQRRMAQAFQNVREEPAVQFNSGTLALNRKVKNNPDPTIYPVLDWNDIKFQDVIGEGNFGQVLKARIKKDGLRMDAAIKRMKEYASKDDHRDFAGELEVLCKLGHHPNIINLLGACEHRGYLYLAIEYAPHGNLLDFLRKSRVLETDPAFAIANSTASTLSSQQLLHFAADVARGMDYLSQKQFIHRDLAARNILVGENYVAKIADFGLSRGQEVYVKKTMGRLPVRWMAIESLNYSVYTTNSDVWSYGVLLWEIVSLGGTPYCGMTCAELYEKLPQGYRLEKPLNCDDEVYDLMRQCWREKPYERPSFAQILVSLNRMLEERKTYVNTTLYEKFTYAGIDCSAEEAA

First: Cc1cccc(Oc2nccc(-c3c(-c4ccc(F)cc4)ncn3C3CCNCC3)n2)c1C
Second: COc1ccccc1Oc1nccc(-c2c(-c3ccc(F)cc3)ncn2C2CCNCC2)n1
The inhibition of the first is lower: -0.14% for the first, 0.74% for the second.

First: Fc1ccc(-c2ncn(C3CCNCC3)c2-c2ccnc(Oc3cccc(F)c3)n2)cc1
Second: Fc1ccc(Oc2nccc(-c3c(-c4ccc(F)cc4)ncn3C3CCNCC3)n2)cc1
The inhibition of the first is lower: 3.23% for the first, 4.93% for the second.

First: O=C(O)c1ccc(Oc2nccc(-c3c(-c4ccc(F)cc4)ncn3C3CCNCC3)n2)cc1
Second: Fc1ccc(-c2ncn(C3CCNCC3)c2-c2ccnc(Oc3ccc(Cl)cc3)n2)cc1
The inhibition of the first is higher: 4.07% for the first, -0.53% for the second.

Compared with `Fc1ccc(-c2ncn(C3CCNCC3)c2-c2ccnc(Oc3cccc(C(F)(F)F)c3)n2)cc1`, `CC(C)(C)c1ccc(Oc2nccc(-c3c(-c4ccc(F)cc4)ncn3C3CCNCC3)n2)cc1` is higher in inhibition: 1.42% for the first, 2.87% for the second.

Going from `O=C1NC(=O)C(c2ccccc2)=C1Nc1ccccc1` to `COc1ccccc1C1=C(Nc2ccccc2)C(=O)NC1=O`, the inhibition falls from 3.8% to 2.63%.

First: CS(=O)(=O)c1ccc(Oc2nccc(-c3c(-c4ccc(F)cc4)ncn3C3CCNCC3)n2)cc1
Second: NC(=O)CCc1ccccc1Oc1nccc(-c2c(-c3ccc(F)cc3)ncn2C2CCNCC2)n1
The inhibition of the first is higher: 1.55% for the first, -0.84% for the second.

For `O=C1NC(=O)C(c2ccccc2Cl)=C1Nc1cc(Cl)c(O)c(Cl)c1`, the inhibition was 2.11%.

From ChEMBL document CHEMBL1961873, “Compounds: GSK PKIS; Assays: Nanosyn kinase panel” (2012)
